Results published in the supplement of paper PMC11417369.
Some of the results follow.

system: PfHDP1 homeodomain (GST-tagged); assay: gcPBM binding intensity (ln(normalized median fluorescence intensity)); higher = stronger DNA binding
Outline: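 Each value is the highest Masliner-normalised natural-log median intensity across replicate spots of either orientation of a probe. The probes were primer-extended double-stranded 36-bp intergenic genomic sequences on an Agilent 4 × 180k array, alongside negative controls, exposed for 1 h to GST-tagged P. falciparum DNA-binding domains expressed in E. coli. Bound protein was picked up with Alexa488 anti-GST antibody and scanned at 488 nm.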

Sequence | gcPBM binding intensity (ln)
ATATATATTAATATTTGTACATAAAATTATTTCAAT [XGTACX_site5364] | 6.65
AGTGTAATTTTCCACTGTACTTTTCTTGTATATAAT [XGTACX_site4201] | 6.29
AATACATTTATGAGCTGTACACATTTATTTGAGCTA [XGTACX_site7695] | 6.27
TAAAAGTATTCCTTTTGTACATATAATGAAAACAAT [XGTACX_site2069] | 6.47
CTATATTTTTAAAAATGTACTTTATAATAAAATACT [XGTACX_site3593] | 6.44
ATACAATAATATAAATGTACAAATTATATCTTAATT [XGTACX_site6004] | 6.45
CTGTTTTTACTAAGTTGTACAAATGATGATACCCTA [XGTACX_site630] | 6.87
TAAATTTAAAATGACACACACTAAAATTATTTAAGT [CACACA_site4816] | 6.51
AAATATTCATAGTATACACACATTTATTTATAACCA [CACACA_site6502] | 6.58
ACCTTTAATATATACACACACATAAAAAAAATATAT [CACACA_site1843] | 8.01
GTATGTATGTATGTATGTACTTATTTATTTATTTAT [XGTACX_site1921] | 7.69
TAAAATTTACGGTCTTGTTGCGCAACCAACATTGTC [CACACA_negctrl_site1175] | 7.25
TAATAATAGTAAATATGTACATATATATATATATAG [XGTACX_site4602] | 6.76
GTTTTTTTTTTTTTGGTGCGTCATTTTCAAAAGAAG [GTGCAC_site9745] | 7.06
ATTAATAAATAAATGACACACACACCCACAAAAAAA [CACACA_site8839] | 7.07
AATGATAAAAATAAATGTACAGAATGATATTTTTTT [XGTACX_site5976] | 6.39
AAAAAATTGTTTCCCTGTACTCAAAAAAAAAAAAAA [XGTACX_site8070] | 6.09
AAAAAAGAAAAGAAATGTACAGAGCTTATCTTTTTA [XGTACX_site5677] | 6.23
TTTTTTAATTTTACATGTACATACAGGTTTTTTTTT [XGTACX_site4539] | 6.69
TTCAATTTTACATGTAGTACATAAATTATACACAAA [XGTACX_site4946] | 6.56
TTATTCCTATTTGGATGTACATTTTAATATAAACAT [XGTACX_site4386] | 6.48
ATTTTTTTTCGTAATTGTTCTTAATGTTGAATTATA [CACACA_negctrl_site1135] | 6.73

Sequence | gcPBM binding intensity (ln)
TTTTCCTTTCACAATGGTACACAAATATACATGCAA [XGTACX_site7244] | 7.33
TAGTAATATGTATCCATACACACATACATTTTATTT [CACACA_site873] | 6.58
TAATTTTTATTCAGTTCACACACGCTTTAATATTAT [CACACA_site9147] | 6.62
AAAAAATATACATATTGTACATTTTTTATTAACACA [XGTACX_site6415] | 5.94
GTATAGTACAAATAAGTGCATATAAAAGAAATACAG | 9.48
ATAAATTTACATTTTTTTTTTTTTTTTTTTTTTTTT [GTGCAC_negctrl_site689] | 7.14
ATTACCAAAAAAAGGTGTACAAATATAATTATGAAA [XGTACX_site44] | 7.12
ATTTTTTTATTTTGAAGTACATAAACTTTATATATA [XGTACX_site1746] | 6.39
ATTACATATGTCGCTTGTACGCATAATTTTTTTATA [XGTACX_site5782] | 7.01
ATTTAAAAAAAAAGACGTACATTTATATAGAATCCT [XGTACX_site6457] | 6.24
CAATTTATAAAGAAAACACACATATACCTATATACA [CACACA_site6710] | 6.44
TTTATATTTAAAGAAACATGCATTTATCATATATAC [TGCATGCA_site173] | 6.42
TACACGCATAAACACACACACACACCCATATATATA [CACACA_site8114] | 7.06
AAAAAAATAAAATACAAAATGGCTATACAAAATAAA [GTGCAC_negctrl_site535] | 6.64
TTTGTTGACGAACACACACACATACATATTTATATA [CACACA_site7141] | 6.8
TCTATAATATTTTTCACACACCATTTCCTTAAACAC [CACACA_site6747] | 6.78
TTATAAATAAAAAGAGTGCAATTATAAATATATATA | 8.65
AAATAAAATATGAACAGTACTTTTGATATAACCATT [XGTACX_site1873] | 6.66
AAAAAAATACAAATATGTACACATATATATTTAAAA [XGTACX_site4729] | 6.31
TTATTCATACAATATCGTACATATATATATATATAT [XGTACX_site1185] | 9.24
TCTAATCTGGAGAAAAGTACATAGTATCTGGTAACA [XGTACX_site2540] | 6.34
GTACACCTATAATATACACACAACAAATATGCACAT [CACACA_site6603] | 10.2

Sequence | gcPBM binding intensity (ln)
ATTATATATATATATACACACACATATATATATATA [CACACA_site8373] | 9.24
GGAATAACCGGACACACACACACATATATATATATA [CACACA_site5874] | 9.34
ATTTAAAATAGAAGTTATATTTATATGGGTGAAAAA [GTGCAC_negctrl_site296] | 6.37
CAAAACAAAACGTATGCACACAATTAAAATATTAAA [CACACA_site5815] | 9.56
AAATGTTGAGCAGTACAAAAAAAAAAAAAAAAAAAA [GTGCAC_negctrl_site518] | 6.78
AAGATACCAATGAAATGTACATATATATAAATATAA [XGTACX_site2135] | 6.52
CATTTATATAAAAGAACACACATATAAAATATTATT [CACACA_site3601] | 6.49
TTTTTTTTTTAATTGGGTACATATATAATTTAAGAA [XGTACX_site2732] | 6.27
TATATATTATAAAATTGTACATATATTAAATTTTTT [XGTACX_site5852] | 6.33
AATAGTCGGGTGCATACACACCTTAAATATAATATA [CACACA_site8271] | 7.67
TTATAAAATATTTATGCATGTGAAGAATATTATAAA [TGCATGCA_site1047] | 6.54
GAAAAAAGTATCAAGGTGCGTATATACATCAAAATA | 7.35
GGTGGGGAGGAGTAATGTACAAATTAACATATTATG [XGTACX_site6666] | 8.02
TTCTTACATGAGTGTACACACTTTTTTTCAGAAAAT [CACACA_site4215] | 9.04
ACACATAAATGAATAAATAAATAAATATAAATATAA [CACACA_negctrl_site1784] | 6.21
ATATCATTTTCCTGCACACATAAATTTATATAATAT [CACACA_site1048] | 8.7
TTTTGTTGAAAAGTAAGATATTCCAACATGTTTTTA [CACACA_negctrl_site391] | 6.13
TAACTAATATATAAAACACACATCATAAAAATATAA [CACACA_site768] | 6.69
AAAAGAACAATGAAGTGTACTAATAATTATTTATGT [XGTACX_site6649] | 6.68
TTTTATCATCTTTTTACATTATGTATAAATATTTTC [CACACA_negctrl_site206] | 6.78
AGCAAAACATAAAATAGTACACATTTAACAAAAAAA [XGTACX_site2921] | 6.54
ATATAATATATTTTTGAACACACAATATATATATAT [CACACA_site9368] | 8.82

Sequence | gcPBM binding intensity (ln)
AAAAATGAAAGTAAGACATGCATGGAATTTTTTTTA [TGCATGCA_site347] | 6.89
TTTTTTTTTTATGAAAGTACATATGAAAAATACGAA [XGTACX_site3451] | 6.53
ATATATGTGTATGTATGTACTTATATTTTTTTTTAT [XGTACX_site1733] | 6.27
TCCGTTATATATGTGTGTACATATAATATATCCTCA [XGTACX_site2588] | 6.8
GCAAATCAATTTTTTTTTAAAACTCATTTTTTCGTT [CACACA_negctrl_site1136] | 6.4
AACGTGTGGAGAATTATAAATGAGTAAAAAATATAT [XGTACX_negctrl_site562] | 6.74
GGGGGGAGGGTGAATACACACGTAATAATCATAAAC [CACACA_site8502] | 8.77
ATTAAATAAAAAAACACACACATATATACCTATATA [CACACA_site5837] | 6.72
CAAAACATTTTATCTACACACATATATAAATAAATA [CACACA_site3220] | 6.36
AATAAAACATAATAATGTACTCAAAGGTTTAACTTG [XGTACX_site4711] | 6.29
TATTTATAATTATAATAATATATATATATATATATA [TGCATGCA_negctrl_site173] | 9.1
ATTGTGTTAATAAAATGTACATTTTCTCTACATTAA [XGTACX_site2766] | 6.7
TTTGAATAAAAACAAAAAATTAAATTAAATTAAATA [CACACA_negctrl_site312] | 6.13
TCCAATATATTTATGAGTACTTATAAATTATACGTT [XGTACX_site742] | 6.7
TTCATACATATTTGAAGTACATTTAAAAATGTCCTT [XGTACX_site747] | 6.28
GAAGTAATTTCATATACACACATATACATACATACA [CACACA_site6753] | 7.1
ATATATATATATGTATGTACGTATGTATTTACTGCT [XGTACX_site3839] | 8.95
ATTATATAGCTAAAAAAAATAAATTAAAAATATTAA [TGCATGCA_negctrl_site505] | 5.99
ATATTTACAAGTAATAGTACAGTTAATTATATAAAA [XGTACX_site4856] | 6.22
AATGTACAAATACGTACACACATATTTATATTTATA [CACACA_site6833] | 6.35
AAGAATGTTATTAGTACACACAATTATTATAGAAAT [CACACA_site7714] | 6.47
CTACCTTTAATATATACACACACATAAAAAAAATAT [CACACA_site8548] | 7
